Results on 96 compounds are retold here after PubChem BioAssay AID485344 (National Center for Advancing Translational Sciences (NCATS), 2010).

Among all 340,000 compounds or so, about 6,900 (2%) were called active. No stated cut-off is given here; in the data, active means inhibition above about 30%; inactive means below that, where a call was filed. Only a part is listed here, and it is no random draw. The source gives no active or inactive call for entries shown without one.

UniProt P14416, sequence (P14416 whole entry, looked up): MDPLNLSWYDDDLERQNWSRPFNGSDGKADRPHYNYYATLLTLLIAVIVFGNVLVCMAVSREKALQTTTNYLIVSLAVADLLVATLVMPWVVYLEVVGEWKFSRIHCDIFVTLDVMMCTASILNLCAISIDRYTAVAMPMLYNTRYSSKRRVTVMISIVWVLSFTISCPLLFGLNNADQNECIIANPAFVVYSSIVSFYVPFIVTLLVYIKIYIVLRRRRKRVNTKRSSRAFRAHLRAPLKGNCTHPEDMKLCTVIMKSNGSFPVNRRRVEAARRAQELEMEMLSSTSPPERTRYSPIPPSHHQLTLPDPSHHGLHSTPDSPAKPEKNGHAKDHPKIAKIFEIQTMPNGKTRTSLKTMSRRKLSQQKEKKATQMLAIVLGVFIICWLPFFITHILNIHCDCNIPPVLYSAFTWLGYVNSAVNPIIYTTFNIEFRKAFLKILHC

The target in the assay is D(2) dopamine receptor (Homo sapiens) (UniProt P14416). Briefly: HTS Assay for Allosteric Antagonists of the Human D2 Dopamine Receptor: Primary Screen for Antagonists. Further: 0% is about no effect. To be noted: HEK293 TREx D2 cells, calcium flux, dopamine EC80; at 10 µM; stronger effect = higher value. Summed up:
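Tetracycline-induced HEK293 TREx cells expressing D2 receptor forced-coupled to calcium signalling, loaded with no-wash calcium dye. Compounds added and calcium flux read 180 s, then dopamine added at EC80 and read a further 180 s.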
In general terms: A change in cytosolic calcium serves as a functional read-out for many receptors and channels.
For orientation: inhibition means the drop in the measured response relative to a control, in per cent. For the compound `Cc1cc(C)c(NC(=O)Cn2c(SCC(=O)NCc3ccccc3)nc3ccccc32)c(C)c1`, the inhibition is -8.95%.
As to `COc1ccc(N2C(=O)CSC2c2cccc(OC)c2OC)cc1` (stereo unspecified), the inhibition is active: 50.7%.
For the compound `CC(=O)c1cccc(NC(=O)Cn2c(=O)c(CNc3ccc(C)cc3)cc3cc4c(cc32)OCCO4)c1`, the inhibition was determined as 10.8%.
Then `COc1ccccc1C(=O)Nc1ccc2nc(N3CCC(C)CC3)cc(C)c2c1`, with 22.7%.
Take `CCOc1ccccc1NS(=O)(=O)c1c(C)nc2sccn2c1=O`: the inhibition was determined as 13.7%.
Take `Cc1c(C(=O)N2CCC(C)CC2)c(S(=O)(=O)NCc2ccccc2)c(C)n1C`: the inhibition was -13.8%.
For `COc1ccc(Nc2ncnc3c2cnn3-c2ccc(C)cc2C)cc1`, the inhibition is -5.36%.
On to `Cc1nn(C(=O)c2ccccc2F)c(C)c1S(=O)(=O)N1CCOCC1`, for which the inhibition was -1.84%.
As for `COc1cccc(CC(=O)Nc2ccc3nc(N4CCC(C)CC4)cc(C)c3c2)c1`, the inhibition was -1.96%.
With `COc1ccc(NC(=O)CSc2nc3c([nH]c4ccccc43)c(=O)n2C)cc1`, the inhibition was 4.15%.
Turning to `Nc1c(C(=O)Nc2ccccc2Cl)c2ccccn2c1C(=O)c1ccc(Cl)cc1`, the inhibition was -1.29%.
With `Cc1ccc(CNC(=O)CSc2ncc(S(=O)(=O)c3ccc(Br)cc3)c(=O)[nH]2)cc1`, the inhibition was -6.08%.
For the compound `COc1ccc(NS(=O)(=O)c2ccc3c(c2)C(C(C)C)C(=O)N3)cc1` (stereo unspecified), the inhibition was 2.73%.
For `CCn1c(C)c(C2N3CC4(C)CN2CC(CC)(C3)C4=O)c2ccccc21` (stereo unspecified), the inhibition is -9.39%.
The value for `CCc1nn(CC(=O)NCCC(C)C)c(=O)c2cc3occc3n12` was 9.69%; that for `Cc1ccc(CNC(=O)C(=O)NCC(c2cccs2)S(=O)(=O)c2ccc(C)cc2)cc1` (stereo unspecified) was -2.19%; that for `COC(=O)c1sccc1S(=O)(=O)N(CC(=O)NCc1ccccc1)c1ccccc1` was 4.61%.
Turning to `Cc1ccc2c(CNCC(C)c3ccccc3)c(C(=O)O)n(Cc3ccccc3C)c2c1` (stereo unspecified), the inhibition was determined as 8.95%.
Regarding `Cc1ccccc1Cn1c(CN2CCC(C(=O)NCc3cccnc3)CC2)cc2ccccc21`, the inhibition turned out to be 6.27%.
In the case of `CCOC(=O)C1CCN(C(=O)Cn2nc(C)n3c(cc4sccc43)c2=O)CC1`, the inhibition was -4.62%.
The value for `COc1ccc(C(=O)Nc2cccc(-c3cn4ccsc4n3)c2)cc1OC` was 7.18%; that for `C=Cc1ccc(N=Cc2c(O)ccc3ccccc23)cc1` was active: 43.5%.
The value for `COc1cccc(NC(=O)C2CCCN2C(=O)Nc2ccccc2)c1` (stereo unspecified) was active: 33.5%; that for `CCCN1CCN(CCCNC(=O)c2ccc3c(c2)sc2nc(-c4ccc(OC)cc4)cn23)CC1` was 25.9%; that for `Cc1c(C)n(Cc2ccccc2)c2ccc(C(=O)NCc3ccccc3F)cc12` was -6.11%.
The value for `Cc1ccc(-c2nc3ccccc3[nH]2)cc1NC(=O)COc1ccccc1[N+](=O)[O-]` was 20.5%; that for `O=C(c1cnn(-c2cccc(F)c2)c1-n1cccc1)N1CCN(c2ccccc2F)CC1` was -5.2%.
`CC(=O)c1cccc(NC(=O)CN2C(=O)c3ccccc3Sc3ncccc32)c1`: the inhibition came out at 24.3%.
Then `COc1ccc(-n2nc3c(N4CCC(C(=O)NCc5cccc(F)c5)CC4)nnc(C)c3c2C)cc1`, with 4.29%.
With `CCc1ccc(NC(=O)CCn2c(-c3ccc(OC)cc3)cc(C(C)=O)c2C)cc1`, the inhibition was -24.4%.
The value for `COc1ccc(NC(=O)c2ccc3c(c2)N(Cc2cccc(Cl)c2)C(=O)c2ccccc2S3=O)cc1Cl` (stereo unspecified) was 14.8%.
As for `CC1CCN(c2nc3c(S(=O)(=O)c4ccccc4)nnn3c3ccc(Cl)cc23)CC1`, the inhibition is -7.64%.
On to `COc1cccc(Cc2nc3ccccc3nc2SCC(=O)NCCc2ccccc2)c1`, for which the inhibition is -1.4%.
Take `COc1ccc(C2C=C(c3ccc(F)cc3)Nc3nc(-c4ccc(Cl)cc4)nn32)cc1` (stereo unspecified): the inhibition was found to be 22.5%.
For `O=C(Nc1cccc(C(F)(F)F)c1)c1cc2c(s1)-c1ccccc1OC2`, the inhibition is active: 40.3%.
Then `Cc1cccc(S(=O)(=O)Nc2cccc(-c3ccc(N4CCCCC4)nn3)c2)c1`, with 23.9%; and `CCN(CC)C(=O)Cn1c(=O)n(-c2ccc(Cl)c(Cl)c2)c(=O)c2c(C)c(C(=O)N(CC)CC)sc21`, with -20.6%.
`CCc1nnc2c(N3CCN(c4cccc(C)c4)C(C)C3)nc3ccccc3n12` (stereo unspecified): the inhibition was -8.62%.
Take `COc1cc(OC)cc(C(=O)Nc2cc3c(cc2N2CCCCC2)n(C)c(=O)n3C)c1`: the inhibition is -7.11%.
Consider `CCc1ccccc1NC(=O)Cn1c(=O)n(Cc2ccco2)c(=O)c2ccccc21`, for which the inhibition is -14.5%.
The value for `COc1ccc(-c2c(C#N)c(SCC(=O)Nc3cccc(Cl)c3)nc(C)c2C(=O)Nc2ccccc2)cc1OC` was 17.1%.
Then `CCc1ccc(NC(=O)C2CCN(c3nn4cc(-c5ccc(OC)cc5)nc4s3)CC2)cc1`, with 23.8%; and `Cc1ccc(N2C(=O)CC(c3ccccc3F)C3=C2COC3=O)cc1Cl` (stereo unspecified), with 0.767%.
Then `COc1ccc(CNC(=O)c2cnc3sc(N4CCC(C)CC4)nn3c2=O)c(OC)c1`, with 5.69%; and `O=C(Nc1cc(Cl)ccc1Cl)c1cc(S(=O)(=O)NCCc2ccccc2)ccc1F`, with -23.7%.
With `Cc1nc(N2CCOCC2)c2c(C(=O)N3CCN(c4ccccc4F)CC3)c(C)oc2n1`, the inhibition is -5.34%.
On to `Cc1ccc(CN2COc3ccc4c(C)cc(=O)oc4c3C2)cc1`, for which the inhibition amounted to 3.34%.
Take `COc1ccc(-c2nc3c(c(SCC(=O)Nc4cccc(O)c4)n2)Cc2c(CO)cnc(C)c2O3)cc1`: the inhibition was determined as 8.72%.
Consider `O=C(NCc1ccc(Cl)cc1)c1cc2c(s1)-c1ccccc1SC2`, for which the inhibition is -1.93%.
In the case of `CC(C)c1ccc(C2Sc3ccccc3NC3=C2C(=O)c2ccccc23)cc1` (stereo unspecified), the inhibition is -0.881%.
For the compound `COC(=O)c1cc(NC(=O)CCc2c(C)nc3c(c(C)nn3C(C)(C)C)c2C)cc(C(=O)OC)c1`, the inhibition was -7.86%.
The value for `Cn1nnnc1SCCCNCc1ccc(Cl)cc1` was -6.71%.
For the compound `COC(=O)COc1ccc(C2C(C(=O)OC)=C(C)NC3=C2C(=O)c2ccccc23)cc1OC` (stereo unspecified), the inhibition is -5.4%.
For `COc1ccc(CCNC(=O)Cc2c(C)c3cc4c(C(C)(C)C)coc4c(C)c3oc2=O)cc1OC`, the inhibition was -6.55%.
With `Cc1cc(C)c2c(c1)NC(=O)C2(O)c1c[nH]c2ccccc12` (stereo unspecified), the inhibition was 16.4%.
Regarding `Cc1ccc2c(c1)cc1c(=O)n(Cc3cccc(Cl)c3)nc(C)n12`, the inhibition is -1.28%.
For the compound `Cc1cn(C)c(CC(=O)NCc2cccc(Cl)c2)c1C(=O)O`, the inhibition was found to be 3.23%.
For the compound `CC(C)(C)c1ccc(S(=O)(=O)N2CCC(Oc3ccc(-n4cnnn4)cc3)CC2)cc1`, the inhibition is 2.34%.
The value for `CC(C)(C)c1ccc(CSC2=Nc3ccccc3C3=NC(CC(=O)NCc4cccs4)C(=O)N23)cc1` (stereo unspecified) was 15.5%.
`Cc1ccc(CNS(=O)(=O)c2ccc(N3CCCCS3(=O)=O)cc2)cc1`: the inhibition turned out to be 10.4%.
Regarding `O=C(CNC(=O)c1ccc(Cl)cc1)OCc1cc(=O)n2nc(C3CC3)sc2n1`, the inhibition is 8.13%.
For the compound `CCC(C)NC(=O)c1cc2cc(S(=O)(=O)N3CCCCC3)ccc2n1C` (stereo unspecified), the inhibition stood at 18.4%.
Consider `CCN1CCN(c2ncc3c(n2)CCN(Cc2cc(Br)cs2)C3)CC1`, for which the inhibition was -26.5%.
In the case of `Cc1c(O)nc(SCC(=O)Nc2ccc(Cl)cc2Cl)n(-c2ccc(F)cc2)c1=O`, the inhibition was -1.91%.
Turning to `O=C(NCC(c1ccc2c(c1)OCO2)N1CCOCC1)c1ccccc1` (stereo unspecified), the inhibition was -2.9%.
Turning to `Cc1nn(C)c2c1c(C(F)(F)F)cc(=O)n2CC(=O)NCc1ccc(OC(C)C)cc1`, the inhibition is -6.04%.
For `CCC(C)c1ccc(OCC(=O)Nc2cccc3ccc(C)nc23)cc1` (stereo unspecified), the inhibition came to 7.16%.
With `CCc1ccccc1NC(=O)CCNS(=O)(=O)c1ccc2c(c1)CCCC(=O)N2`, the inhibition was -12.8%.
Consider `CCCCCCOc1ccc(/C=C/C(=O)Nc2sc3c(c2C(=O)OC)CCC3)cc1OC`, for which the inhibition is -2.7%.
Then `Cc1onc(-c2ccccc2)c1C(=O)Nc1nnc(COc2ccc(Cl)cc2)s1`, with active: 38.9%.
In the case of `COc1ccc(NC(=O)Cn2c(=O)oc3ccccc32)cc1`, the inhibition was -1.12%.
Take `CCc1nnc(NC(=O)CCC(=O)Nc2ccc(C)cc2)s1`: the inhibition was active: 43.2%.
Then `O=C(CSc1nc2ccsc2c(=O)n1Cc1ccc(F)cc1)NCc1ccc(Cl)cc1`, with 1.6%; and `CN1c2ccc(Cl)cc2-c2nc(SCC(=O)NCc3ccc(F)cc3)ncc2S1(=O)=O`, with 10.8%; and `CC1=C(C(=O)Nc2ccc(C)cc2C)C(c2ccccc2)n2nc(SCC(=O)c3ccc(C)cc3)nc2N1` (stereo unspecified), with -2.98%.
For the compound `CCCCNC(=O)CCC1N=C2c3ccccc3N=C(SCC(=O)NCCc3ccc(OC)c(OC)c3)N2C1=O` (stereo unspecified), the inhibition worked out at 15.9%.
On to `Cc1ccc2nc(-c3ccc(NC(=O)Cc4ccccc4)cc3)sc2c1`, for which the inhibition was 9.43%.
In the case of `CCN(CC)CCNC(=O)CCn1c(=O)c2cccn2c2cccnc21`, the inhibition was -0.786%.
Consider `Cc1cc(N2CC(=O)N(CCc3ccccc3)C(=O)C2)n2ncnc2n1`, for which the inhibition was active: 32%.
Turning to `CCN(CC)CCn1c(NCc2ccc3c(c2)OCO3)nc2ccccc21`, the inhibition is active: 32.7%.
As for `CC(=O)c1ccc(NC(=O)Cn2nc(C(F)(F)F)c3c2CCC3)cc1`, the inhibition is -5.63%.
`O=C(Cn1ncc2c3ccccc3n(Cc3ccccc3)c2c1=O)NCc1cccs1`: the inhibition amounted to 10.6%.
`CCOC(=O)C1=C(CN2CCN(c3ccc(Cl)cc3)CC2)NC(=O)NC1c1ccc(OC)cc1` (stereo unspecified): the inhibition was -1.26%.
As to `COc1cccc2sc(NC(=O)c3ccc4c(c3)OCCO4)nc12`, the inhibition stood at 10.9%.
Take `CCc1nc2ccc(C(=O)N3CCN(c4ccccc4F)CC3)cc2nc1CC`: the inhibition was 8.81%.
With `Cc1ccc(Cl)cc1N1CCN(C(=O)Cn2cnc3onc(-c4ccc(F)cc4)c3c2=O)CC1`, the inhibition stood at 2.11%.
Turning to `O=C(CCn1c(=O)c2sccc2n(Cc2ccc(F)cc2)c1=O)NCc1ccc2c(c1)OCO2`, the inhibition is -16.1%.
On to `COc1cccc(C2CC(=O)Nc3c2c(=O)n(C)c2nc4ccccc4n32)c1OC` (stereo unspecified), for which the inhibition was 10.7%.
Then `Cc1ccc(-n2nc3cc(C)c(NC(=O)c4ccc(-c5ccccc5)o4)cc3n2)cc1`, with -1.36%.
Consider `Cc1ccc(NC(=O)CC2Oc3ccc(C)cc3NC2=O)c(C)c1` (stereo unspecified), for which the inhibition came out at 7.94%.
Take `CCOc1ccc(NC(=O)Cn2c(=O)n(CCc3ccccc3)c(=O)c3c4c(sc32)CCCC4)cc1`: the inhibition was determined as 1.48%.
`COc1cccc(Nc2nnc(-c3cc4ccc(O)cc4oc3=O)s2)c1`: the inhibition is -3.68%.
The value for `CC(=O)Nc1ccc(NC(=O)CSc2nnc(NC(=O)Cc3ccc(F)cc3)s2)cc1` was active: 34%; that for `Cc1ccc(Cl)cc1NC(=O)Cn1c(=O)cc(C)c2c(C)nn(C)c21` was 5.08%.
Regarding `Cc1ccc(CNC(=O)CCNS(=O)(=O)c2ccc3c(c2)oc(=O)n3C)cc1`, the inhibition is -24.8%.
With `O=C(COc1ccc(Br)cc1Br)Nc1ccc(S(=O)(=O)Nc2ncccn2)cc1`, the inhibition is 3.28%.
